PubChem BioAssay AID504444 (National Center for Advancing Translational Sciences (NCATS), 2011)
Screen size: about 360,000 compounds; about 7,500 (2.1%) were called active. Inconclusive results (about 20%) are left out. Calls come from the whole dose curve; as a rule, active = well fitted inhibition curve with a large enough effect; inconclusive = small, poorly fitted or top-dose-only effect, or effect the other way; inactive = flat fitted curve, though single readings scatter. The list shows a part of the results, in another mix than the full data. Bridge positions count the residues as written; N and C are the ends. Square brackets hold non-standard residues; d marks the D form. Peptide text beside a SMILES is read from it. * marks the point of attachment. X1 = CCC(C)C(N)C1=NC(C(=O)*)CS1; dOrn = NCCC[C@@H](N)C(=O)O

assay: Nrf2 qHTS screen for inhibitors; details: A549 ARE-Fluc reporter, luciferase luminescence, 18-24 h; series mostly up to 46 µM; activity change, negative = inhibition: at the top concentration; note: nearly all actives have a fitted effect of over 60% in size
Summary of the method: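 Reporter: ARE-Fluc in A549. Exposure: 18-24 h, 37 °C, 5% CO2, 5% FBS OPTI-MEM. Readouts: fluorescent cytotoxicity (CellTiter-Fluor), then luminescent Nrf2 signal after BugLite.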
% is set by controls: 0 for no effect and ±100 for the full control effect; potency is the fitted concentration of half-maximal effect.

SMILES	activity change, negative = inhibition	Potency
O=C(C[C@H]1C/C=C\CC[C@@H](Cc2ccc(F)cc2)C(=O)OC[C@H]2CCCN2C1=O)N[C@H](CO)Cc1ccccc1	inactive: -7.43%	
CCCN1CCC(=O)N(CCSc2ccc(C)cc2)CC1	inactive: 17%	
COc1ccc(N2CCN(C(=O)CCCCn3c(=O)[nH]c4ccsc4c3=O)CC2)cc1	inactive: -6.65% [at 9.27 µM]	
CCOc1ccc(NS(=O)(=O)c2ccc(C(=O)N3CCN(c4ncccn4)CC3)cc2)cc1		active: 16.4 µM
CC(C)(C)[C@@H]1COC(=O)[C@H](Cc2ccc(F)cc2)CC/C=C\C[C@@H](CC(=O)N(CCO)Cc2ccccc2)C(=O)N1	inactive: -15.5%	
Cc1ccc(F)c([C@H]2[C@H]3C=CC[C@@H](C)[C@@H]3C(=O)N2Cc2ccccc2)c1	inactive: -5.38%	
CCC(C)C(N)C1=NC(C(=O)N[C@@H](CC(C)C)C(=O)N[C@H](CCC(=O)O)C(=O)N[C@H](C(=O)N[C@H]2CCCCNC(=O)[C@H](CC(N)=O)NC(=O)[C@@H](CC(=O)O)NC(=O)[C@H](Cc3cnc[nH]3)NC(=O)[C@@H](Cc3ccccc3)NC(=O)[C@H]([C@@H](C)CC)NC(=O)[C@@H](CCCN)NC2=O)[C@@H](C)CC)CS1 (stereo not given in full) (X1-L[dE]IK[dOrn]I[dF]H[dD]N; lactam 4-C)	inactive: 2.91%	
COc1ccc(-c2nn(-c3ccccc3)cc2/C=C(/C#N)C(N)=O)cc1[N+](=O)[O-]	inactive: -0.115%	
CC1(C)CC(N2CCN(C(c3ccccc3)c3ccccc3)CC2)=CC(=[N+]2CCCCC2)C1		active: 7.31 µM
CN(c1ccccc1)c1ccc(/C=C(\CCC(=O)O)c2nc3ccccc3s2)cc1[N+](=O)[O-]	inactive: -12.9%	
CCC1CN(C(=O)N2CCC(C(=O)NCc3ccco3)CC2)c2cc(C)ccc2O1 (stereo not given)	inactive: -18%	
Cc1ccc(-c2nc(CSCC(=O)N3CCN(c4ccccn4)CC3)c(C)o2)cc1		active: 16.4 µM
COc1ccccc1CNC(=O)CCS(=O)(=O)c1ccc2c(c1)CC(C)N2C(=O)C1CC1 (stereo not given)	inactive: -20.2%	
O=C(C[C@H]1C/C=C\CC[C@H](Cc2ccc(F)cc2)C(=O)OC[C@H]2CCCN2C1=O)N[C@@H](CO)Cc1ccccc1	inactive: 0%	
CN(C)CCCNC(=O)/C=C/c1ccc(OCc2c(F)cccc2Cl)cc1		active: 20.6 µM
COc1ccc(-c2noc(N3CCC(C(=O)Nc4ccc(OC)c(OC)c4)CC3)n2)cc1	inactive: -7.18%	
CCC1CN(C(=O)NCc2ccccc2)c2cc(C)ccc2O1 (stereo not given)	inactive: -0.967%	
Cc1ccc2occ(CC(=O)Nc3ccc(S(=O)(=O)N4CCCC(C)C4)cc3)c2c1 (stereo not given)		active: 20.6 µM
CC(C)(C)[C@@H]1COC(=O)[C@H](Cc2ccc(F)cc2)CC/C=C\C[C@H](CC(=O)N(CCO)Cc2ccccc2)C(=O)N1	inactive: -24.2%	
CC1CC=CC2C1C(=O)N(Cc1ccccc1)C2c1ccc(F)c(-c2ccc(N(C)C)cc2)c1 (stereo not given)	inactive: -14.8%	
CC(=O)C[C@H](O)CC(=O)[C@H]1OC(=O)[C@H](C)C/C=C\Cc2ccccc21	inactive: 0.141%	
COc1ccc(-c2nc(CSCC(=O)N3CCN(c4ccccc4F)CC3)c(C)o2)cc1		active: 5.8 µM
Cc1cccc(NC(=O)C(=O)NCCCN2CCOCC2)c1	inactive: -12.7%	
O=C(Nc1cnn(Cc2ccc(F)cc2)c1)c1cnn2c(C(F)F)cc(-c3ccccc3)nc12	inactive: -0.391%	
CCO[C@H]1OC(C(=O)N2CCN(Cc3ccc4c(c3)OCO4)CC2)=C[C@@H](c2ccc(C(F)(F)F)cc2)[C@@H]1CCCO	inactive: -12.5%	

SMILES	activity change, negative = inhibition	Potency
CCOc1ccc(OCC)c(NC(=O)C2CCN(S(=O)(=O)c3ccc4c(c3)CC(C)N4C(C)=O)CC2)c1 (stereo not given)	inactive: -17.9%	
CC(C)(C)n1ncc2c(=O)n(Cc3c(F)cccc3Cl)cnc21	inactive: -28.2%	
O=C(Nc1ccc(OC(F)(F)F)cc1)c1[nH]ncc1[N+](=O)[O-]		active: 7.31 µM
CC1CCCCC1NS(=O)(=O)c1ccc(S(=O)(=O)NCc2ccncc2)cc1 (stereo not given)		active: 2.31 µM
COc1ccc(C2Nc3ccccc3C(=O)N2Cc2ccco2)cc1CN1C(=O)c2ccccc2C1=O (stereo not given)		inactive
N=c1c2c(ncn1CCN1CCOCC1)Oc1ccc3ccccc3c1C2c1ccccc1 (stereo not given)	inactive: -1.25%	
Cc1cc(C(=O)N[C@@H](c2ccccc2)[C@]2(C)C[C@H]2[C@@H](C)C(=O)Nc2ccc3ccccc3c2)no1	inactive: 9.62%	
C#Cc1ccc([C@@H]2C=C(C(=O)NCc3ccccc3)O[C@H](OCC)[C@H]2CCCO)cc1	inactive: -13.1%	
CCCCOC(=O)c1[nH]c2c(c1C)C(=O)CC(c1cc(OC)c(OC)c(OC)c1)C2 (stereo not given)		active: 13 µM
CCOc1ccc(NC(=O)Cn2c(=O)n(CC3CCCO3)c(=O)c3ccccc32)cc1 (stereo not given)	inactive: -6.42%	
Cc1cc2[nH]c(=O)c(=O)[nH]c2cc1S(=O)(=O)N1CCN(c2cccc(C)c2C)CC1	inactive: 8.76%	
C=CC[C@@H](CC(=O)N[C@@H](CO)Cc1ccccc1)C(=O)NC[C@@H](OC(=O)[C@@H](CC=C)Cc1ccc(F)cc1)c1ccccc1	inactive: 1.26%	
COc1ccc2c(c1)C(=O)[C@H](O)[C@@H](c1ccc(OC)c(Br)c1)O2	inactive: 6.34%	
CCCCCCNC(=O)N1C/C=C\C(c2ccc(OC)cc2)N(Cc2ccc(F)cc2)C(=O)C1 (stereo not given)	inactive: -15.9%	
Cc1ccc(Cl)cc1NC(=O)c1cc(S(=O)(=O)N2CCOCC2)cn1C	inactive: -16%	
Cc1c(C)n(Cc2ccccc2)c2ncnc(NN)c12		active: 25.9 µM
CCc1ccc(NC(=O)C2CCN(S(=O)(=O)c3c(C)noc3C)CC2)cc1	inactive: 11.7%	
O=C(Nc1ccc(F)c(Cl)c1)C1CCCN(c2cnccn2)C1 (stereo not given)	inactive: -22.2%	
COc1ccc(NC(=O)CCN2C(=O)[C@@H]3[C@H](C2=O)[C@H]2C=C[C@@H]3C2)cc1	inactive: 3.44%	
Cc1nc(NC(=O)c2ccccc2)sc1-c1csc(NCc2ccccc2)n1		active: 20.6 µM
CC(=O)n1cc([C@H]2C=C(C(=O)N3CCOCC3)O[C@@H](OCc3ccc(CO)cc3)C2)c2ccccc21	inactive: -9.09%	
Cc1cccc(N2CCN(S(=O)(=O)c3ccc4c(c3)CC(=O)N4C)CC2)c1C	inactive: 7.36%	
CCCC(=O)Nc1nnc(S(=O)(=O)N2CCCCCC2)s1	inactive: 11.1%	
OCC[C@@H]1C[C@H](O)[C@@H](O)[C@]2(Cc3ccccc3CO2)O1	inactive: -9.22%	
C[C@@H]1CCC[C@]2(O[C@@H](CCO)C[C@H](O)[C@H]2O)O1	inactive: 6.5%	
